Measured values taken from the supplement of paper PMC3334620.
Over roughly 33,000 sequences, “E-score (-0.5 to 0.5)” has its median near -0.056; the highest 2% begin near 0.38. The list shows a part of the results.

Each sequence was assayed against Stb4 (UniProt P50104) (assay: PBM E-score (8-mer binding enrichment) (E-score (-0.5 to 0.5)); higher = stronger / more preferred TF binding; most listed sequences are background and not binding sites). Conditions: protein concentration: 200 nM; construct: GST-DNA-binding domain.
Procedure, shortened: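 E-scores (a modified Wilcoxon-Mann-Whitney statistic) were assigned by the Universal PBM Analysis Suite to every ungapped eight-base word pooled with its reverse complement. The input came from universal all-10-mer Agilent arrays made double-stranded by primer extension and probed with GST-tagged yeast transcription factors at about 100-200 nM. Fluorescent anti-GST detected bound protein, and masliner normalised the scans.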
In the case of ACTAAAAT, the “PBM E-score” value is reported as -0.0643. In the case of TCGGACGA, the “PBM E-score” value is reported as 0.302. CTATTCCA was tested, and the “PBM E-score” value was -0.151. For AATCGCCC, the “PBM E-score” value was -0.0803. AGGATCAT was tested, and the “PBM E-score” value was -0.197. With GCGGGGTA the “PBM E-score” value was 0.106. For AGCCCGGG, the “PBM E-score” value was 0.304. For CACCGCTG, the “PBM E-score” value was -0.203. In the case of AGAACTAC, the “PBM E-score” value is reported as 0.0216. GAAGCCAA was tested, and the “PBM E-score” value was 0.112. For ATTAATGC, the “PBM E-score” value was -0.0403. With CGCAAAGA the “PBM E-score” value was -0.00111. For GCTGCTCA, the “PBM E-score” value was -0.262. In the case of ATGGATCG, the “PBM E-score” value is reported as 0.196. For CACAAGAG, the “PBM E-score” value was -0.073. GAATGCAC was tested, and the “PBM E-score” value was 0.026. With ACCCGCTC the “PBM E-score” value was 0.0516. With ATAGGGAA the “PBM E-score” value was 0.0223. With GGCACTCA the “PBM E-score” value was -0.187. ATGGCTCG was tested, and the “PBM E-score” value was -0.0233. In the case of CAGCATGC, the “PBM E-score” value is reported as -0.132. For TGCGCGCA, the “PBM E-score” value was -0.0292. CTCACTCA was tested, and the “PBM E-score” value was -0.242. In the case of ATCCTTCC, the “PBM E-score” value is reported as 0.18. With CGACAAGA the “PBM E-score” value was 0.0203. For ACCACCGC, the “PBM E-score” value was -0.0347. With CAATTACA the “PBM E-score” value was -0.0962. For CATAGAGA, the “PBM E-score” value was -0.128. In the case of CCGGACAG, the “PBM E-score” value is reported as 0.255. CCCGCCTC was tested, and the “PBM E-score” value was 0.163. CCCGGAAG was tested, and the “PBM E-score” value was 0.417. In the case of AGACGCTA, the “PBM E-score” value is reported as -0.187. AATGGCAA was tested, and the “PBM E-score” value was -0.0786. In the case of ATATTAGC, the “PBM E-score” value is reported as -0.112. For ATAGCGGC, the “PBM E-score” value was 0.0624. For AGGTCACG, the “PBM E-score” value was -0.136. In the case of GGTAGGAC, the “PBM E-score” value is reported as 0.0564. CCTAGCAC was tested, and the “PBM E-score” value was 0.00176. In the case of AATGACAC, the “PBM E-score” value is reported as -0.172. TAAGATTA was tested, and the “PBM E-score” value was -0.0475. In the case of CTCGACGC, the “PBM E-score” value is reported as -0.03. CCATCTAC was tested, and the “PBM E-score” value was -0.0683. CCAGATGG was tested, and the “PBM E-score” value was -0.245. For CGGAAATC, the “PBM E-score” value was 0.366. In the case of ACGTTCAC, the “PBM E-score” value is reported as -0.132. For CTGTACAC, the “PBM E-score” value was -0.2. With ACTATAGC the “PBM E-score” value was -0.034. For GGCTCAAA, the “PBM E-score” value was 0.151. With CCAACCTC the “PBM E-score” value was -0.0741. With ACTCGCCC the “PBM E-score” value was 0.0517. CTTGGCGA was tested, and the “PBM E-score” value was -0.24. In the case of AAGAGCTA, the “PBM E-score” value is reported as -0.27. In the case of AGACCAAC, the “PBM E-score” value is reported as -0.164. For CAAGGATG, the “PBM E-score” value was -0.0612. GCGATCAC was tested, and the “PBM E-score” value was -0.0916. In the case of AAAAATAT, the “PBM E-score” value is reported as 0.168. For ACCATCGA, the “PBM E-score” value was -0.304. GTCAGCAA was tested, and the “PBM E-score” value was -0.154. For AGCCATTA, the “PBM E-score” value was 0.0954. With ACACGTTC the “PBM E-score” value was -0.107. With TGACATCA the “PBM E-score” value was -0.106. With AAGAAACC the “PBM E-score” value was 0.06. TAATTAGA was tested, and the “PBM E-score” value was -0.00025. For AATGCCGG, the “PBM E-score” value was 0.313. For CTACATAA, the “PBM E-score” value was -0.0441. In the case of GTTGCAAC, the “PBM E-score” value is reported as -0.013. CATAGGCC was tested, and the “PBM E-score” value was 0.03. For CCTGGAGC, the “PBM E-score” value was -0.23. ACTATTAC was tested, and the “PBM E-score” value was 0.0521. For TATAACCA, the “PBM E-score” value was -0.0806. CTAAAGTC was tested, and the “PBM E-score” value was -0.0387. With ACGGCCGG the “PBM E-score” value was 0.233. ACATTTGA was tested, and the “PBM E-score” value was 0.0359. In the case of TAAGCGAA, the “PBM E-score” value is reported as 0.034. With AATCTTGC the “PBM E-score” value was -0.0133. GCCAGCTA was tested, and the “PBM E-score” value was -0.247. For CGGGTGAA, the “PBM E-score” value was 0.322. GGCCGGAC was tested, and the “PBM E-score” value was 0.155. In the case of CCCGCGCG, the “PBM E-score” value is reported as 0.246. For GAGAGAAA, the “PBM E-score” value was -0.102. For TAACCGTA, the “PBM E-score” value was 0.137. With GGACCCAA the “PBM E-score” value was 0.0817. In the case of GCTATTCA, the “PBM E-score” value is reported as -0.0111. For ATCCAGGG, the “PBM E-score” value was -0.143. In the case of AGTCCGGG, the “PBM E-score” value is reported as 0.254. In the case of CGTCGCCA, the “PBM E-score” value is reported as -0.267. In the case of CTGCCTAC, the “PBM E-score” value is reported as -0.153. With ATTGATTG the “PBM E-score” value was -0.043. ATAAATTG was tested, and the “PBM E-score” value was 0.0776. GCTTTAAC was tested, and the “PBM E-score” value was -0.138. For CTAGGATA, the “PBM E-score” value was -0.0673. For ACGCTATG, the “PBM E-score” value was -0.215. In the case of CCATTCCC, the “PBM E-score” value is reported as 0.0811. For CGTGAACG, the “PBM E-score” value was -0.0933. For AAAACGTA, the “PBM E-score” value was -0.139. In the case of CGTTCACC, the “PBM E-score” value is reported as 0.0563. In the case of GACTTTGC, the “PBM E-score” value is reported as -0.0991. For AAAACATA, the “PBM E-score” value was 0.0282. For AGTATCTC, the “PBM E-score” value was -0.0258. For AATACGTG, the “PBM E-score” value was -0.144. In the case of GACGGATC, the “PBM E-score” value is reported as 0.265. CCGGGACA was tested, and the “PBM E-score” value was 0.326. With GCTGTACC the “PBM E-score” value was -0.123. For AAGGTGCG, the “PBM E-score” value was 0.0131. For AGGATTAG, the “PBM E-score” value was -0.11. For CGCACGCC, the “PBM E-score” value was -0.0661. In the case of ATTTGTTC, the “PBM E-score” value is reported as 0.152. ACTCTCTG was tested, and the “PBM E-score” value was -0.262. For GGTCGTAA, the “PBM E-score” value was 0.0174. In the case of AGGCATAC, the “PBM E-score” value is reported as -0.127. For ACATTCAA, the “PBM E-score” value was -0.0161. In the case of AATAACCT, the “PBM E-score” value is reported as -0.0451. In the case of GAGTGTCC, the “PBM E-score” value is reported as -0.0438. With GAGGTGAC the “PBM E-score” value was -0.046. In the case of CCATCATA, the “PBM E-score” value is reported as 0.0356. For AGCTTACC, the “PBM E-score” value was 0.0828. In the case of AATGGCCC, the “PBM E-score” value is reported as -0.0222. For CGGAATGC, the “PBM E-score” value was 0.364. With ACGTCACG the “PBM E-score” value was -0.126. For AAAGCAGT, the “PBM E-score” value was -0.0701. GAGACAAC was tested, and the “PBM E-score” value was -0.137. In the case of AACGAGGG, the “PBM E-score” value is reported as -0.23. CTTATCTC was tested, and the “PBM E-score” value was 0.0713. CAGACCTG was tested, and the “PBM E-score” value was -0.17. In the case of AGGTTAAT, the “PBM E-score” value is reported as -0.0737. With ACTCAGAA the “PBM E-score” value was -0.0399. AATGCCAA was tested, and the “PBM E-score” value was -0.176. With ACCTGCCC the “PBM E-score” value was -0.0259. With AACGGTCC the “PBM E-score” value was 0.129. For AAACAAGC, the “PBM E-score” value was -0.0198. For GCTATACC, the “PBM E-score” value was -0.0312. With AGCACCTG the “PBM E-score” value was -0.24. CGCTCACC was tested, and the “PBM E-score” value was -0.0562. With AACTCTTA the “PBM E-score” value was -0.133. In the case of GGCCCGAC, the “PBM E-score” value is reported as 0.255. With GACATCGA the “PBM E-score” value was -0.0709. In the case of ATGTATTA, the “PBM E-score” value is reported as -0.0132. In the case of CGCACCGC, the “PBM E-score” value is reported as -0.00306. ATCGAGGA was tested, and the “PBM E-score” value was -0.14. ACACTCAA was tested, and the “PBM E-score” value was -0.155. In the case of AAGCTACC, the “PBM E-score” value is reported as 0.0437. In the case of TACTCGCA, the “PBM E-score” value is reported as -0.0584. GTTACGGA was tested, and the “PBM E-score” value was 0.177. In the case of TCGATCCA, the “PBM E-score” value is reported as -0.0806. With ATGCGCGA the “PBM E-score” value was 0.106. In the case of ACTGGAGA, the “PBM E-score” value is reported as -0.129. For ATCACAAG, the “PBM E-score” value was -0.173. With ATCAGCAA the “PBM E-score” value was -0.0425. For AAAGACCC, the “PBM E-score” value was 0.202. In the case of ATGCTTGA, the “PBM E-score” value is reported as -0.0882. With GAAGGCTA the “PBM E-score” value was 0.0104. With CTATGAAC the “PBM E-score” value was -0.214. In the case of AACACCAC, the “PBM E-score” value is reported as 0.0336. With GCTGAAAA the “PBM E-score” value was -0.078. For CGGATCCA, the “PBM E-score” value was 0.36. For AGTAGTCA, the “PBM E-score” value was -0.295. AGAGGACT was tested, and the “PBM E-score” value was -0.331. In the case of AGGTTTAC, the “PBM E-score” value is reported as -0.0584. With CTCCCCTC the “PBM E-score” value was 0.0804. In the case of CACGACAA, the “PBM E-score” value is reported as -0.244. In the case of AAGTACAA, the “PBM E-score” value is reported as -0.00444. ATCCGATA was tested, and the “PBM E-score” value was 0.448. GGGTATCA was tested, and the “PBM E-score” value was 0.0389. For CTCTTTTC, the “PBM E-score” value was -0.0359. CTGAGAAA was tested, and the “PBM E-score” value was -0.134. CTCCCGGA was tested, and the “PBM E-score” value was 0.329. AAGATGCG was tested, and the “PBM E-score” value was -0.0438. With AACACGAA the “PBM E-score” value was 0.0454. GACGTGTA was tested, and the “PBM E-score” value was -0.0863. In the case of CTGAATAC, the “PBM E-score” value is reported as -0.117. With TCATGCAA the “PBM E-score” value was -0.0599. In the case of AAGTCGAT, the “PBM E-score” value is reported as -0.0507.
